Source: PubChem BioAssay AID504332 (National Center for Advancing Translational Sciences (NCATS), 2011)
The campaign covered roughly 350,000 compounds. About 31,000 (8.9%) were called active. This list was built around the results that the source calls inconclusive (neither active nor inactive); the mix of calls is not that of the screen. Calls come from the whole dose curve; as a rule, active = well fitted inhibition curve with a large enough effect; inconclusive = small, poorly fitted or top-dose-only effect; inactive = no such curve, though single readings can be large or run the other way. Where the call is inconclusive, the potency comes from a doubtful curve fit.

Target: Histone-lysine N-methyltransferase EHMT2 (Homo sapiens) (UniProt Q96KQ7)
Sequence of UniProt Q96KQ7 (Q96KQ7 whole entry, looked up): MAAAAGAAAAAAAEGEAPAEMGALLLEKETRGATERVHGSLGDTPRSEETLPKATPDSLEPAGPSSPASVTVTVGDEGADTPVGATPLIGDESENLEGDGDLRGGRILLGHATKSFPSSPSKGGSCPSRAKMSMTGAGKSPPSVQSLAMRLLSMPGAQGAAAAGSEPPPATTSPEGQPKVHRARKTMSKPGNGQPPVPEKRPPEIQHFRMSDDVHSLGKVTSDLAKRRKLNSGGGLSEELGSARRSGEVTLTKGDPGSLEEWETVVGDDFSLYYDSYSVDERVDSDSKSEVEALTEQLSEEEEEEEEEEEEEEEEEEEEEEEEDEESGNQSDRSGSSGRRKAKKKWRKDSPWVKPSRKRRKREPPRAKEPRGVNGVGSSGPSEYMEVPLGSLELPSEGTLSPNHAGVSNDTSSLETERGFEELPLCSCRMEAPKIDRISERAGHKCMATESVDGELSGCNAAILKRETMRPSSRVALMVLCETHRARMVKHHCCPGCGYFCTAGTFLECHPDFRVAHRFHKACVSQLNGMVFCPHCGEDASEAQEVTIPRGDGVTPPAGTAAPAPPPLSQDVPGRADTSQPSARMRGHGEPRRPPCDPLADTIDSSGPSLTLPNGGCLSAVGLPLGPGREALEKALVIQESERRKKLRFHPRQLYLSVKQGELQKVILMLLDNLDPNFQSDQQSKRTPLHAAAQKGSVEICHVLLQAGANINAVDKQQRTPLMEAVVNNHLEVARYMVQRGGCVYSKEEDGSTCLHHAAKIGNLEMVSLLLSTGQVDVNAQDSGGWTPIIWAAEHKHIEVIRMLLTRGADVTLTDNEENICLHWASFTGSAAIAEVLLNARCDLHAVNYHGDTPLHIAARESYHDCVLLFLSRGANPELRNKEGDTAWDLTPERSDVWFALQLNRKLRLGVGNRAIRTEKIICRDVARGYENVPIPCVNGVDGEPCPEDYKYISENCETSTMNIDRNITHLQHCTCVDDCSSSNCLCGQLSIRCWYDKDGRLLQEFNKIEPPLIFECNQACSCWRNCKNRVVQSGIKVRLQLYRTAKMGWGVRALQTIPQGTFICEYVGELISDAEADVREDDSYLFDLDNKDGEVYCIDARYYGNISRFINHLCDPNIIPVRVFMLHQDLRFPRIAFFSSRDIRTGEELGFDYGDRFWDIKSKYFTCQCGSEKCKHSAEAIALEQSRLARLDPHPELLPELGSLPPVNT
Test: qHTS Assay for Inhibitors of Histone Lysine Methyltransferase G9a; note: nearly all actives have a fitted effect of over 75% in size
Conditions: G9a H3K9 monomethylation, AlphaScreen, 2 h; activity, negative = inhibition: at 59 µM (top of the series) unless noted
How it was run: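 Step 1: enzyme (final 20 nM) with compound, 15 min RT. Step 2: substrate peptide 500 nM and SAM 20 uM, 2 h RT. Step 3: anti-H3K9me1 antibody and AlphaScreen beads, 10 min, then plate read.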
% is set by controls: 0 for no effect and ±100 for the full control effect; potency is the fitted concentration of half-maximal effect; tags give direction and shape of the fitted curve.

| SMILES | activity, negative = inhibition | Potency |
| --- | --- | --- |
| Cc1ccc(S(=O)(=O)N2[C@@H](c3ccc(Cl)cc3)C(C(=O)O)=CC[C@H]2c2ccc(Cl)c(Cl)c2)cc1 | inactive: 19.8% [at 2.33 µM] | – |
| O=C(CSc1ncccn1)NCCC1=CCCCC1 | inactive: -12.1% [at 102 µM] | – |
| Cc1c(NS(=O)(=O)c2ccc(Br)cc2)c(=O)n(-c2ccccc2)n1C | inactive: 13.2% [at 102 µM] | – |
| Cc1cc(N2CCCCC2)nc2ccc(NC(=O)CCC(=O)N3CCN(c4ccccc4)CC3)cc12 | inactive: 3.78% | – |
| COc1ccc(CCNC(=O)C(C)n2c(=O)cc(-c3ccccc3)c3c(C)nn(C)c32)cc1OC (stereo unspecified) | inactive: -1.4% | – |
| O=S(=O)(c1ccc(F)cc1)N1CCC(c2nc3ccccc3[nH]2)CC1 | inactive: 3% [at 102 µM] | – |
| C=CCOc1ccc(Br)cc1/C=C1\NC(=S)N(C(C)=O)C1=O | – | inconclusive: 1.78 µM [inhibitor, full curve, poor fit] |
| N#Cc1ccc(CSc2nnc(Cc3cccs3)n2Cc2ccco2)cc1 | – | inconclusive: 28.2 µM [inhibitor, single point] |
| CCn1c(CNc2nc(-c3ccccc3)cs2)nnc1SCC(=O)NCc1ccccc1 | inactive: -26% | – |
| N=c1c2c(n(Cc3ccc(Cl)c(Cl)c3)c3c1CCC3)CCCC2 | – | inconclusive: 89.1 µM [inhibitor, single point] |
| COc1ccc(NC(=O)CCNC(=O)c2ccco2)cc1S(=O)(=O)N(C)C | inactive: 3.72% [at 102 µM] | – |
| N=C1C(c2nc3ccccc3s2)=C(O)CN1NC(=O)c1ccc([N+](=O)[O-])cc1 | – | inconclusive: 39.8 µM [inhibitor, partial curve, poor fit] |
| O=C(C[n+]1ccccc1)N/N=C/c1ccccc1C(F)(F)F | inactive: 4.02% [at 102 µM] | – |
| CC(OC(=O)c1ccc(Cl)c(S(N)(=O)=O)c1)C(=O)NCc1ccc2c(c1)OCO2 (stereo unspecified) | – | inconclusive: 56.2 µM [inhibitor, partial curve] |
| CCn1c(-c2cc(-c3ccc(C)c(C)c3)nc3ccccc23)n[nH]c1=S | – | active: 39.8 µM |
| NNc1nc2sc3c(c2c(=O)n1C1CCCCC1)CCN(Cc1ccccc1)C3 | – | active: 50.1 µM |
| C/C1=C2N=C(/C=C3N=C(/C(C)=C4\[N-]C(C)(C5N=C1C(C)(CCC(=O)NCC(C)OP(=O)([O-])O[C@H]1C(O)C(n6cnc7cc(C)c(C)cc76)O[C@@H]1CO)C5CC(N)=O)C(C)(CC(N)=O)C4CCC(N)=O)C(C)(CC(N)=O)C\3CCC(N)=O)C(C)(C)C/2CCC(N)=O.[CH2-]C1OC(n2cnc3c(N)ncnc32)C(O)C1O.[Co] (stereo partly specified) | inconclusive: -57.1% [inhibitor] [at 2.33 µM] | – |
| COc1ccc(-n2nnnc2SCC(=O)Nc2cccc(NC(C)=O)c2)cc1OC | – | inconclusive: 79.4 µM [inhibitor, single point] |
| Cc1ccc(-c2nc3sccn3c2Nc2ccc(C)c(C)c2)cc1 | – | active: 11.2 µM |
| COc1cc2c(cc1OC)C(c1cc3ccc(C)cc3[nH]c1=O)N(C(=O)c1ccco1)CC2 (stereo unspecified) | – | inconclusive: 79.4 µM [inhibitor, single point] |
| Cc1ccc(C(=O)/C=C\Nc2ccc(C)c(C)c2)cc1 | – | inconclusive: 89.1 µM [inhibitor, single point] |
| COC(=O)c1ccccc1NC(=O)COC(=O)[C@H](C)NC(N)=O | – | inconclusive: 39.8 µM [inhibitor, partial curve, poor fit] |
| CCN1CCN(c2cc(C)c3cc(NC(=O)c4ccncc4)ccc3n2)CC1 | – | inconclusive: 79.4 µM [inhibitor, single point] |
| CS(=O)(=O)N1CCC2(CCCN(Cc3cc(C(F)(F)F)cc(C(F)(F)F)c3)C2)CC1 | – | inconclusive: 0.708 µM [inhibitor, full curve, poor fit] |

| SMILES | activity, negative = inhibition | Potency |
| --- | --- | --- |
| CC(Oc1ccc2c(-c3ccccc3)cc(=O)oc2c1)C(=O)NCC(O)c1ccccc1 (stereo unspecified) | inactive: 10.9% [at 12.7 µM] | – |
| Cc1nnc(SCC(=O)NCc2ccc3c(c2)OCO3)s1 | – | inconclusive: 44.7 µM [inhibitor, partial curve, poor fit] |
| O=C(Cn1nnc(-c2cccc(C(F)(F)F)c2)n1)NC(=O)NCc1ccco1 | – | inconclusive: 56.2 µM [inhibitor, partial curve, poor fit] |
| COC(=O)c1cc2sc(Cl)cc2n1CC(=O)Nc1cc(C)cc(C)c1 | inactive: -10.3% | – |
| O=C(NC(=S)NCc1ccccc1)c1ccc2c(c1)OCO2 | – | inconclusive: 39.8 µM [inhibitor, single point] |
| Cc1csc(SCC(=O)Nc2ccccc2)n1 | – | inconclusive: 7.08 µM [inhibitor, partial curve, poor fit] |
| Cn1cccc1-c1cc(C(=O)O)[nH]n1 | – | active: 50.1 µM |
| O=C(O)CCNC1C=CS(=O)(=O)C1 (stereo unspecified) | inactive: -4.59% [at 102 µM] | – |
| O=C(OCc1cnc(Cl)s1)c1c(F)cccc1F | inactive: 12.4% [at 102 µM] | – |
| COc1ccc(OC)c(NC(=O)[C@H](CSCc2ccccc2)N2Cc3ccccc3C2=O)c1 | inactive: -5.47% | – |
| CCCCN(C(=O)CSc1nnnn1C)C1CCS(=O)(=O)C1 (stereo unspecified) | inactive: -10.6% [at 12.7 µM] | – |
| CCc1ccc(NC(=O)CS(=O)CC(=O)Nc2ccc(F)cc2F)cc1 (stereo unspecified) | inactive: -32.9% | – |
| CC(NC(=O)OC(C)(C)C)C(=O)Oc1cc2oc(=O)cc(-c3ccccc3)c2cc1Cl (stereo unspecified) | inactive: -4.83% | – |
| CC(=O)NC(c1cccs1)c1cc(Br)c2cccnc2c1O (stereo unspecified) | inactive: 7.81% [at 12.7 µM] | – |
| CCN(CC)CCOc1ccc(Cc2ccccc2)cc1 | inactive: 7.54% | – |
| O=c1cc(-c2ccccc2)oc2cc(O)c(O)cc12 | inconclusive: -81.5% [inhibitor] [at 2.33 µM] | – |
| Cc1cc(C)cc(NC(=O)CSc2nc3[nH]ncc3c(=O)[nH]2)c1 | – | inconclusive: 20 µM [inhibitor, single point] |
| Cn1c(-c2cccc3ccccc23)n[nH]c1=S | – | active: 5.01 µM |
| CCOC(=O)N1CCN(c2nc(SC)nc3sc4c(c23)CC(C)(C)OC4)CC1 | inconclusive: -56.2% [inhibitor] | – |
| O=[N+]([O-])c1ccc(NC(=S)N2CCc3ccccc3C2)cc1 | – | inconclusive: 39.8 µM [inhibitor, single point] |
| CC(C(=O)OCC(=O)Nc1cccc(S(=O)(=O)N2CCOCC2)c1)N1C(=O)c2ccccc2C1=O (stereo unspecified) | – | inconclusive: 89.1 µM [inhibitor, single point] |
| C/C(=N\O)C1/C(=N/O)CC2C1C2(C)C (stereo unspecified) | inconclusive: -80.5% [inhibitor] | – |
| CCNC(=O)NC(=O)C(C)N1C(=O)NC(c2ccccc2)(c2ccccc2)C1=O (stereo unspecified) | inactive: 11.8% | – |
| N#CC1=C2SCN(C3CCCCC3)CN2C(=O)CC1c1ccc(Cl)cc1 (stereo unspecified) | – | active: 2 µM |

| SMILES | activity, negative = inhibition | Potency |
| --- | --- | --- |
| COc1cccc(CC(=O)Nc2nc3c(s2)C(=O)CC(C)(C)C3)c1 | – | inconclusive: 56.2 µM [inhibitor, partial curve, poor fit] |
| N#Cc1nc(-c2ccc(COc3ccccc3)o2)oc1N1CCCCC1 | – | active: 4.47 µM |
| CCCn1c(SCC(=O)NCc2ccccc2)nnc1-c1ccncc1 | inactive: -14.4% [at 102 µM] | – |
| CC(=O)NS(=O)(=O)c1ccc(NC(=O)C2c3ccccc3Oc3ccccc32)cc1 | – | inconclusive: 79.4 µM [inhibitor, single point] |
| O=C(/C(=C/c1ccc(Cl)cc1)c1nc2ccccc2[nH]1)c1cccs1 | – | inconclusive: 28.2 µM [inhibitor, partial curve, poor fit] |
| CC12CC(NC(=O)N1c1cccc(C(=O)N3CCCCC3)c1)c1ccccc1O2 (stereo unspecified) | inactive: 24.7% [at 102 µM] | – |
| O=c1nc(SCc2c(F)cccc2Cl)nc(-c2ccc(Cl)cc2)[nH]1 | – | inconclusive: 89.1 µM [inhibitor, single point] |
| Cc1c(CC(=O)O)c(=O)oc2c(C)c3occ(-c4ccc(F)cc4)c3cc12 | inactive: 4.72% [at 102 µM] | – |
| Cc1cc(C)n2[nH]c(=O)c(N=Nc3ccc(S(N)(=O)=O)cc3)c2n1 | inactive: -43.4% [at 102 µM] | – |
| COC(=O)c1cc2occc2n1CC(=O)Nc1ccc(N(C)C)cc1 | – | inconclusive: 3.55 µM [inhibitor, full curve] |
| CCOc1ccc(CN(CCc2ccc3c(c2)OCO3)Cc2cc(OC)c(OC)cc2OC)cc1 | – | active: 2.82 µM |
| Cc1cc(Nc2ccc(F)c(Cl)c2)n2nc(C)nc2n1 | – | inconclusive: 100 µM [inhibitor, single point] |
| CCCCN1CC(c2nc3ccccc3n2CCCCOc2cccc(C)c2C)CC1=O (stereo unspecified) | – | inconclusive: 35.5 µM [inhibitor, single point] |
| CCCN1CCN(CCCNC(=O)c2ccc3nc(Cc4ccccc4)oc3c2)CC1 | inactive: 4.53% | – |
| CCOc1ccc(NC(=O)CC2C(=O)N(c3cccc(C)c3)C(=O)N2Cc2cccs2)cc1 (stereo unspecified) | – | inconclusive: 6.31 µM [inhibitor, single point] |
| CN(C)c1ccc(C(=O)c2ccccc2C(=O)O)c(O)c1 | – | inconclusive: 79.4 µM [inhibitor, partial curve] |
| COc1ccc(-c2csc(NC(=O)c3ccc(OCC(=O)N4CCOCC4)c(OC)c3)n2)cc1OC | – | inconclusive: 7.08 µM [inhibitor, full curve] |
| Cc1ccc(Cn2c(SCC(=O)N(C)C3CCS(=O)(=O)C3)nc3ccccc3c2=O)cc1 (stereo unspecified) | inactive: -32.3% [at 102 µM] | – |
| Cc1cc(C(F)(F)F)nn1CC(=O)NNC(=S)Nc1cccc(Cl)c1 | – | inconclusive: 0.891 µM [inhibitor, single point] |
| COc1ccc(-c2cc3nc(C4CCN(C(=O)OC(C)(C)C)CC4)c(C(=O)Nc4cc(C)cc(C)c4)cn3n2)cc1 | inactive: 4.37% | – |
| CC1CCN(C(=S)c2ccccc2O)CC1 | – | inconclusive: 2.82 µM [inhibitor, partial curve, poor fit] |
| CN1CCN(c2ncc3nc(CCc4ccccc4)c(=O)n(C)c3n2)CC1 | inactive: 10.9% [at 0.501 µM] | – |
| CCc1ccc(Nc2oc(C)cc(=O)c2C(C)=O)cc1 | – | inconclusive: 50.1 µM [inhibitor, partial curve, poor fit] |
